# Reference: the supplement of paper PMC10441789
# The other results are listed elsewhere or left out. Antibody binding of pooled human sera (four to six donors per pool; dilution not stated) to peptides of the Trypanosoma cruzi antigen TSSA on microarrays. Quantile-normalised fluorescence in arbitrary units, mean of duplicate arrays; higher = more binding. No active / inactive call. The uninfected pools are read here as the healthy donors of the same country. The strongest signals lie near the top of the scale (about 60,000).
# Key:
# Assay in all cases: antibody binding signal (normalised fluorescence) (arbitrary fluorescence units); higher = stronger serum antibody binding to peptide
# [1] = system: pooled sera of chronic Chagas disease patients, Argentina
# Procedure: (§1)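 Microarray of 15-residue peptides over residues 30-55 of Trypanosoma cruzi TSSAII, each with 1 to 10 substitutions at naturally variable positions, probed with one serum pool per country.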
# [2] = system: pooled sera of chronic Chagas disease patients, Bolivia
# Procedure: as §1
# [3] = system: pooled sera of chronic Chagas disease patients, Brazil
# Procedure: as §1
# [4] = system: pooled sera of chronic Chagas disease patients, Colombia
# Procedure: as §1
# [5] = system: pooled sera of chronic Chagas disease patients, Mexico
# Procedure: as §1
# [6] = system: pooled sera of chronic Chagas disease patients, USA
# Procedure: as §1
# [7] = system: pooled sera of uninfected people, Argentina
# Procedure: as §1
# [8] = system: pooled sera of uninfected people, Bolivia
# Procedure: as §1
# [9] = system: pooled sera of uninfected people, Brazil
# Procedure: as §1
# [10] = system: pooled sera of uninfected people, Mexico
# Procedure: as §1
# [11] = system: pooled sera of uninfected people, USA
# Procedure: as §1
Sequence,antibody binding signal [1],antibody binding signal [2],antibody binding signal [3],antibody binding signal [4],antibody binding signal [5],antibody binding signal [6],antibody binding signal [7],antibody binding signal [8],antibody binding signal [9],antibody binding signal [10],antibody binding signal [11]
GKENKPAAGGTPSQS,811,446,2200,1750,2340,6480,781,297,552,226,136
NKAAAGEAPSQPGAS,7380,32600,44900,225,206,11400,543,1220,321,307,1050
KKTATGGAPSQSGAS,1320,221,630,927,512,650,338,271,99.9,98.3,226
TPPSGKEKKPATGGA,16200,333,795,1060,16100,752,492,699,137,118,389
TEKKTAAGETPSPPG,669,289,396,511,414,3070,136,212,212,233,991
KEKKTAAGETPSQPG,186,259,15800,202,145,1290,112,87.7,111,68.8,139
TPPSGTENKTAAGGT,52600,44500,50300,699,5740,19600,2200,464,2440,491,427
KDNKPATGETPSQPG,35000,22400,39500,395,268,24500,419,988,425,1610,180
KKPAAGEAPSQSGAS,226,3710,10700,185,145,10400,243,141,99,92.3,261
GKDNKTAAGEAPSPS,1640,261,1040,3670,2380,5960,300,220,129,91.3,139
GTDKKTAAGGAPSQP,221,292,621,6430,587,538,172,156,144,112,113
GTDNKPAAGEAPSPS,3790,2940,41400,1130,222,16900,145,559,315,340,111
KEKKTAAGGTPSQPG,221,203,229,3180,157,1500,238,88.7,226,178,113
GKDNKTATGEAPSPS,17000,12800,15000,8690,6760,21300,337,254,169,101,159
GKENKTAAGGTPSPS,1820,255,5930,4470,2830,12400,319,91.1,310,530,126
GTEKKTATGEAPSPP,12700,20300,14100,1300,2650,21200,187,701,184,120,124
KAAAGGAPSPSGASS,234,223,405,5230,1830,346,211,135,106,97.1,186
SGKDNKTAAGGTPSP,1400,239,1090,5980,941,2750,178,116,448,294,148
DNKPAAGETPSPPGA,163,275,18500,282,214,3690,125,297,270,237,271
GTEKKAATGGTPSQP,974,428,776,2080,1350,1770,483,713,539,783,181
KENKPATGEAPSPSG,50400,45400,51100,328,886,45400,1000,837,305,272,221
SSTPPSGKENKPATG,18300,8650,24500,1020,8770,13800,3710,2360,198,257,629
SGTDKKPATGGAPSP,3410,2210,23200,11700,2830,2880,425,1180,142,1960,304
PSGTEKKPATGGTPS,22000,2660,19700,5270,6220,6710,810,541,993,390,666
SGTENKPAAGGTPSP,45400,19700,35200,1410,1320,8290,619,2150,857,384,163
PSGKDNKPAAGGAPS,4310,1340,5180,6200,6790,4830,945,769,139,159,149
GKDKKTAAGETPSQP,585,1090,16700,1040,856,1230,126,120,100,100,103
